Laboratory results taken from PubChem BioAssay AID588591 (National Center for Advancing Translational Sciences (NCATS), 2011).
The campaign covered roughly 390,000 compounds. About 4,700 (1.2%) were called active. This list was built around the results that the source calls inconclusive (neither active nor inactive); the mix of calls is not that of the screen. The call rests on the fitted dose curve; in most records, active means well fitted inhibition curve with a large enough effect; inconclusive means small, poorly fitted or top-dose-only effect, or another doubt; inactive means no such curve, though single readings can be large or run the other way. Where the call is inconclusive, the potency comes from a doubtful curve fit.

Biological target: DNA polymerase eta (Homo sapiens) (UniProt Q9Y253)
Assay: qHTS for Inhibitors of Polymerase Eta
Conditions: recombinant Pol eta, fluorescent DNA replication assay; series mostly up to 114 µM
Procedure, shortened: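 Pol eta (10 nM) was preincubated with compounds for 15 min at room temperature, after which fluorescent replication substrate (50 nM final) was added to start the reaction. Fluorescence was read kinetically at 0 and 10 min.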
Potency means the concentration at half of the fitted maximal effect; tags describe the fitted curve by direction and shape.

UniProt Q9Y253, sequence (Q9Y253 whole entry, looked up): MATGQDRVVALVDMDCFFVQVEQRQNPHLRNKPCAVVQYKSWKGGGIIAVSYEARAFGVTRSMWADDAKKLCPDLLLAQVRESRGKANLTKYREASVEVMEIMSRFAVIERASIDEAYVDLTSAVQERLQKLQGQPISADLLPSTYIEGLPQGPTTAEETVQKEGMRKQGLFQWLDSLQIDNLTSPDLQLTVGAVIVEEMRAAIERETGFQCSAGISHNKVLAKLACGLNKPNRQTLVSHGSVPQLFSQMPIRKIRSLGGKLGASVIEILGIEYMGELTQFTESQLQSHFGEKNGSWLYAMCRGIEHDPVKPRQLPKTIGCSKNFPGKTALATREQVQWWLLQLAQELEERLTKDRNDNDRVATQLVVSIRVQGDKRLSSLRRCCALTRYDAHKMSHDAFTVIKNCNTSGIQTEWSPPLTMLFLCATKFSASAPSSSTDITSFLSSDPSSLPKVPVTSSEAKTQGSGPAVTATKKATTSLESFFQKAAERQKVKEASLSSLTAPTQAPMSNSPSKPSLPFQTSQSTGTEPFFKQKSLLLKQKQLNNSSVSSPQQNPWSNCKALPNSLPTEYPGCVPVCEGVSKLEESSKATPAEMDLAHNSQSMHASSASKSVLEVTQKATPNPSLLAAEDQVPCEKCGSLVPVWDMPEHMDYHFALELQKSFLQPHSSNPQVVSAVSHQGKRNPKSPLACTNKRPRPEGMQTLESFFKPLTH

SMILES | Potency
CC(C)(C)OC(=O)N1CCC(CC2CC(c3ccccc3)=NO2)(C(=O)O)CC1 (stereo not given) | inactive
CCOC1(OCC)C(c2ccc(Cl)cc2)C(C#N)(C#N)C1(OCC)OCC (stereo not given) | inconclusive: 31.6 µM [inhibitor, partial curve, poor fit]
COc1ccc(S(=O)(=O)N2CCC(C(=O)NCc3cccnc3)CC2)cc1OC | inactive
O=C1Cc2cc(S(=O)(=O)N3CCCCC3)ccc2N1 | inactive
CC(C)C[C@@H](CNCC(=O)[C@H](Cc1ccccc1)NC(=O)c1[nH]cnc1C(=O)N[C@H](CN)CC(C)C)NC(=O)c1nc[nH]c1C(=O)N[C@@H](CC(=O)O)C(=O)O | inconclusive: 89.1 µM [inhibitor, single point]
Cn1ncc(N=Cc2ccccc2)c1C(N)=O | inconclusive: 89.1 µM [inhibitor, partial curve, poor fit]
CSc1nc(N2CCN(c3ccccc3Cl)CC2)c2ccccc2n1 | inconclusive: 79.4 µM [inhibitor, partial curve, poor fit]
COc1ccc([C@@H]2C[C@H](c3ccccc3)Oc3cc(C)cc(C)c32)cc1 | inactive
CC1(C)C[C@@H]2C[C@@](C)(CN2C(=O)c2cc(COc3cccc(C(F)(F)F)c3)on2)C1 | inconclusive: 44.7 µM [inhibitor, partial curve, poor fit]
CCOC(=O)CSc1ncnc2c1c(-c1ccccc1)cn2-c1ccc(OC)cc1 | inconclusive: 100 µM [inhibitor, partial curve, poor fit]
CCCn1c(N)c(C(=O)CSc2nnc(-c3c[nH]c4ccccc34)n2C2CC2)c(=O)[nH]c1=O | inactive
Cc1cc(S(=O)(=O)Nc2nc(CN3CCOCC3)nc3sc4c(c23)CCC4)cc(C)c1C | active: 17.8 µM
CC(C)(C)c1cc[n+](-c2[nH]c(=O)sc2/C=N/NC(=O)c2ccccc2[O-])cc1 | inconclusive: 28.2 µM [inhibitor, full curve]
CSc1nnc(SCc2nc3sc(C(=O)O)c(C)c3c(=O)[nH]2)s1 | active: 3.16 µM
NS(=O)(=O)c1ccc(NC2=CC(=O)C(=O)c3ccccc32)cc1 | inconclusive: 89.1 µM [inhibitor, single point]
COC(=O)c1ccc(Cl)cc1NC(=O)N1CCC(CN2CCC(C)CC2)CC1 | inactive
COc1cccc(NC(=O)c2oc3ccccc3c2NC(=O)Cc2cccc(C)c2)c1 | inactive
Cc1ccc(C)c(CN2C(=O)C(O)(c3c[nH]c4ccccc34)c3ccccc32)c1 (stereo not given) | inconclusive: 56.2 µM [inhibitor, partial curve, poor fit]
CSc1ccccc1NC(=O)COC(=O)/C=C/c1ccco1 | inconclusive: 14.1 µM [inhibitor, partial curve, poor fit]
Cc1ccccc1NC1=C/C(=N\S(=O)(=O)c2cccs2)c2ccccc2C1=O | active: 11.2 µM
CCc1ccc(S(=O)(=O)c2cnc(SCC(=O)Nc3ccc(OC)cc3OC)[nH]c2=O)cc1 | inactive
CC(C)Cn1c(CN(Cc2ccccc2)Cc2ccccc2)nc2c1c(=O)n(C)c(=O)n2C | inconclusive: 79.4 µM [inhibitor, partial curve, poor fit]

SMILES | Potency
CCOc1ccc(-c2csc(/C(C#N)=C\c3ccc(O)c([N+](=O)[O-])c3)n2)cc1 | active: 22.4 µM
O=C(c1cnn(C(=O)c2cccc(S(=O)(=O)N3CCOCC3)c2)c1)c1ccccc1O | inconclusive: 31.6 µM [inhibitor, partial curve, poor fit]
O=S(=O)(Nc1nc2ccc(S(=O)(=O)N3CCCC3)cc2s1)c1ccc(F)cc1 | active: 89.1 µM
O=C(NCCNC(=O)c1ccccc1Cl)c1ccco1 | inconclusive: 89.1 µM [inhibitor, partial curve, poor fit]
COc1ccc(N(CC(=O)Nc2ccc(S(=O)(=O)N3CCOCC3)cc2)S(=O)(=O)c2ccccc2)cc1 | inconclusive: 79.4 µM [inhibitor, partial curve, poor fit]
O=C(Nc1ccc2nc(-c3ccco3)c(-c3ccco3)nc2c1)NC1CC1 | active: 1.26 µM
COC(=O)c1cnc(N2CCCN(S(=O)(=O)c3ccc(C(F)(F)F)cc3)CC2)nc1C(F)(F)F | inconclusive: 1 µM [inhibitor, partial curve, poor fit]
CCCSc1nnc(NC(=O)CSc2nc3[nH]c(=O)cc(O)c3s2)s1 | active: 56.2 µM
CC(Oc1ccc(Cl)cc1)C(=O)Nc1sccc1C(N)=O (stereo not given) | inconclusive: 56.2 µM [inhibitor, partial curve, poor fit]
CC(/C=C1\SC(=S)N(CCCC(=O)Nc2ccc(C(=O)O)cc2)C1=O)=C\c1ccccc1 | active: 31.6 µM
O=C(NC(Cc1ccccc1)C(=O)O)/C(=C\c1ccc(Cl)cc1)NC(=O)c1ccco1 (stereo not given) | inconclusive: 15.8 µM [inhibitor, full curve, poor fit]
CN(C)c1ccc(/C=C2\C(=N)N3N=C(CC(=O)N4CCCC4)SC3=NC2=O)cc1Br | inactive
CC(=O)Nc1cccc(-c2csc(Nc3ccc(C)cn3)n2)c1 | inconclusive: 44.7 µM [inhibitor, partial curve]
CC(OC(=O)c1ccc2c(=O)n3c(nc2c1)CCCCC3)C(=O)Nc1ncc(Cl)cc1Cl (stereo not given) | inconclusive: 39.8 µM [inhibitor, single point]
C[C@H](NC(=O)C1CCN(S(=O)(=O)c2ccccc2)CC1)C(=O)NCc1ccncc1 | inactive
COc1cc([N+](=O)[O-])ccc1NC(=O)CCCOc1cccc(C)c1 | inconclusive: 89.1 µM [inhibitor, single point]
Cn1c(=O)oc2cc(S(=O)(=O)N3CCCC(C(=O)N4CCN(c5cccc(Cl)c5)CC4)C3)ccc21 (stereo not given) | inactive
CC1(C)Cc2c(C#N)c(N)n(-c3ccccc3)c(=S)c2CO1 | inactive
O=C(NCCN1CCOCC1)c1ccc([N+](=O)[O-])cc1[N+](=O)[O-] | inconclusive: 3.55 µM [inhibitor, partial curve, poor fit]
CC1C/C(=C\c2cccnc2)C(=O)/C(=C/c2cccnc2)C1 (stereo not given) | active: 20 µM
CCC(=O)Nc1cccc(-c2nc3ccccc3o2)c1 | inactive
Cc1ccc(S(=O)(=O)NCc2ccccc2)cc1C(=O)N1CCCC(C(F)(F)F)C1 (stereo not given) | inconclusive: 3.98 µM [inhibitor, full curve, poor fit]

SMILES | Potency
O=C(COC(=O)c1ccc([N+](=O)[O-])o1)Nc1ccc2c(c1)OCO2 | inconclusive: 44.7 µM [inhibitor, partial curve]
COc1cccc(Nc2nnc(SCC(=O)Nc3sccc3C(N)=O)s2)c1 | inactive
O=C(Cc1ccccc1)Nc1ccc2oc(-c3ccncc3)nc2c1 | inconclusive: 8.91 µM [inhibitor, partial curve]
Cc1cc(C2(c3ccc(O)c(C)c3)OC(=O)c3ccccc32)ccc1O | inconclusive: 15.8 µM [inhibitor, full curve, poor fit]
CCC(=O)N1CCc2cc(Br)cc(S(=O)(=O)N(CC)Cc3ccccc3)c21 | inactive
O=C(O)c1ccc(S(=O)(=O)c2ccc([N+](=O)[O-])cc2[N+](=O)[O-])cc1 | active: 79.4 µM
O=C(COC(=O)c1ccc(O)cc1O)Nc1ncc(Cl)cc1Cl | inconclusive: 22.4 µM [inhibitor, full curve, poor fit]
CN(C)CCCN1c2ccc([N+](=O)[O-])cc2CCc2cc([N+](=O)[O-])ccc21 | inconclusive: 89.1 µM [inhibitor, partial curve, poor fit]
COc1ccc(N2C(=O)[C@@H]3[C@H](C2=O)[C@H]2c4ccccc4C=CN2[C@@H]3C(C)=O)cc1 | inconclusive: 15.8 µM [inhibitor, partial curve, poor fit]
COc1cc2c(-c3ccccc3Cl)nc3c(c(C)nn3-c3ccccc3)c2cc1OC | inactive
CC1C=CC(C)C(C(=O)O)C1C(=O)O (stereo not given) | active: 2.51 µM
COc1cccc(-n2nnnc2SCC(=O)Nc2ccc3c(c2)OCCO3)c1 | inconclusive: 22.4 µM [inhibitor, partial curve, poor fit]
O=C(CCc1nc2sc3c(c2c(=O)[nH]1)CCCC3)Nc1cccc(Cl)c1 | active: 12.6 µM
Cc1sc2nc3c4ccccc4c(NCc4ccco4)nn3c(=O)c2c1C | inconclusive: 28.2 µM [inhibitor, partial curve]
COc1ccc(CCNC(C(=O)Nc2cc(C)cc(C)c2)c2ccccc2)cc1 (stereo not given) | inconclusive: 89.1 µM [inhibitor, partial curve, poor fit]
CCN(c1ccc(C)cc1C)S(=O)(=O)c1nnc(NC(=O)c2ccccc2OC)s1 | inactive
CCN(Cc1ccccc1)c1ccc(N=Nc2nn(C)c(C)c2[N+](=O)[O-])cc1 | inconclusive: 22.4 µM [inhibitor, partial curve, poor fit]
Cc1ccc(-c2ccc3nnc(SCC(=O)NCC4CCCO4)n3n2)cc1 (stereo not given) | inconclusive: 100 µM [inhibitor, partial curve, poor fit]
Cc1[nH]n(-c2ccccc2)c(=O)c1C(c1ccc(O)c([N+](=O)[O-])c1)c1c(C)[nH]n(-c2ccccc2)c1=O | active: 28.2 µM
NC1=NC(=O)/C(=C/c2ccccc2OCC(=O)Nc2ccc(F)cc2)S1 | inconclusive: 22.4 µM [inhibitor, full curve]
Cc1cc(C)c(NC(=O)CN2C(=O)CCSc3ccc(S(=O)(=O)N4CCCC4)cc32)c(C)c1 | inactive
